From PMC4336329 (PLoS ONE, 2015) come the findings set out here.

Each structure is given as a SMILES string. About 2,200 (0.71%) of roughly 310,000 compounds showed an effect of 50% or more. Effects have a minus sign here. The list shows a part of the results.

The target in the assay is human ether-à-go-go-related gene (hERG) potassium channel (human, UniProt Q12809). Put plainly: primary screen, population patch clamp on CHO cells stably expressing hERG.
Sequence of human ether-à-go-go-related gene (hERG) potassium channel (Q12809 whole entry, looked up): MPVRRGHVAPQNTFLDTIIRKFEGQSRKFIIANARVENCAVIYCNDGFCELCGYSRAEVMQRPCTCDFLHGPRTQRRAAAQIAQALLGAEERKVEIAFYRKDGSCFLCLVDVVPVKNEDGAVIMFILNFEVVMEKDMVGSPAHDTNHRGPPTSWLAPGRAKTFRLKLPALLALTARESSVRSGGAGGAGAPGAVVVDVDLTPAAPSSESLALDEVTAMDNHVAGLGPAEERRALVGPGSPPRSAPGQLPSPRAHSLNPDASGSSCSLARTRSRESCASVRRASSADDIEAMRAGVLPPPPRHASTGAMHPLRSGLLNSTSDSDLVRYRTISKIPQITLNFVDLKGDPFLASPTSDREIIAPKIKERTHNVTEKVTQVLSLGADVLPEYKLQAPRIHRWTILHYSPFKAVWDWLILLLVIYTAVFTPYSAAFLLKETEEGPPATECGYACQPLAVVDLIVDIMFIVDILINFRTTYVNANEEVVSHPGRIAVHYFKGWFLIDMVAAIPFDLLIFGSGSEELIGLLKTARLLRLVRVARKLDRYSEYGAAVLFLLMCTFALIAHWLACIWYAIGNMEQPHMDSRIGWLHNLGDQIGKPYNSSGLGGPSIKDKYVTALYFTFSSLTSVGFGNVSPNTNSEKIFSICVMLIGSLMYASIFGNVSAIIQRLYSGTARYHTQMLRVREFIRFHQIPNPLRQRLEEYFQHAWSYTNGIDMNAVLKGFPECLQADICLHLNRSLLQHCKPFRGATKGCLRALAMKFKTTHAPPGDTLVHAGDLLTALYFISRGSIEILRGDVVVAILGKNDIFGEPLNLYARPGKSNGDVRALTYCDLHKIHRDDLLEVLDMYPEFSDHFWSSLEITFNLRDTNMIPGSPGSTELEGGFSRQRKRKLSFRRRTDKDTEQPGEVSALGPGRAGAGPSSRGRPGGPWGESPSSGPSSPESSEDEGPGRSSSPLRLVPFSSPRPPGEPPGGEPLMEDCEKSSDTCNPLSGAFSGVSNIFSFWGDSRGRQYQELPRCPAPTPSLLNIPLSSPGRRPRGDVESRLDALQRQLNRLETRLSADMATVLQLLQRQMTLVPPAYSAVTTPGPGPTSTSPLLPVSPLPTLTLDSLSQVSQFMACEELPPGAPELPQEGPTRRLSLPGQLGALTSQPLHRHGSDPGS
For `Cc1ccc(CCN2C(=O)CCC2(C)C(=O)NC2CCCC2)cc1` (centres unmarked), the “hERG current change (%, negative = inhibition) at 1uM” value is recorded as 6.06%.

With `COc1cc(/C=N/N2CCN(c3ccccc3OC)CC2)ccc1O`, the “hERG current change (%, negative = inhibition) at 1uM” value is 7.22%. `CCCCCCn1c(=O)c(C(=O)Nc2ncccc2C)c(O)c2ccccc21`: the “hERG current change (%, negative = inhibition) at 1uM” value came out at 9.79%.

As to `COc1ccc(N2CCN(C(=S)NC(=O)c3cccs3)CC2)c([N+](=O)[O-])c1`, the “hERG current change (%, negative = inhibition) at 1uM” value is given as -3.68%. `CCc1nnc(NC(=O)Cn2nnc(-c3ccccc3F)n2)s1`: the “hERG current change (%, negative = inhibition) at 1uM” value was 13%.

On to `CCOc1ccc(NC(=O)CN(C)C(=O)Cc2c(C)nc3ccccc3c2C)cc1OCC`, for which the “hERG current change (%, negative = inhibition) at 1uM” value was -14.2%.

Turning to `Cn1c(CNC(=O)Nc2ccccc2)nnc1SCc1ccccc1`, the “hERG current change (%, negative = inhibition) at 1uM” value came to 0.509%. With `N#CC1=C(N)Nc2nc3ccccc3n2C1c1ccc(Cl)cc1` (centres unmarked) the figure was 6.63%; with `COc1ccc(-c2nnc(-c3cc4ccccc4oc3=O)o2)cc1`, 13.7%. With `Cc1ccc(S(=O)(=O)N(CC2CO2)c2ccccc2[N+](=O)[O-])cc1` (centres unmarked) the figure was 10.5%. Turning to `Cn1c(SCC(=O)NCc2ccco2)nnc1-c1c[nH]c2ccccc12`, the “hERG current change (%, negative = inhibition) at 1uM” value worked out at 1.37%. Turning to `O=C(c1cccc(OC2CCN(Cc3cc(F)cc(F)c3)CC2)c1)N1CCCC1`, the “hERG current change (%, negative = inhibition) at 1uM” value stood at 3.73%. For the compound `CC(=O)[C@H]1CC[C@H]2[C@@H]3C=CC4=CC(=O)CC[C@@]4(C)[C@@H]3CC[C@]12C`, the “hERG current change (%, negative = inhibition) at 1uM” value is recorded as 10.2%. Consider `CCc1cccc2c(C(=O)COC(=O)c3ccccc3)c[nH]c12`, for which the “hERG current change (%, negative = inhibition) at 1uM” value is 8.88%. With `O=[N+]([O-])c1ccc(CSc2nnc(-c3cnccn3)o2)cc1` the figure was 10.1%; with `CCOc1ccccc1OCC(=O)OC(C)C(=O)Nc1ncc(Cl)cc1Cl` (centres unmarked), 9.83%; with `Cc1ccccc1C(=O)Nc1nnc(-c2ccncc2)o1`, 7.81%. The same measure for `O=S(=O)(c1ccc2c(c1)CCCC2)N1CCNCC1`: 12.5%; for `CC(C)NCC(O)c1ccc(O)c(O)c1.Cl` (centres unmarked): 14.2%. As for `Cc1c(NC(=O)C(C)OC(=O)CNC(=O)c2ccc(C(C)(C)C)cc2)c(=O)n(-c2ccccc2)n1C` (centres unmarked), the “hERG current change (%, negative = inhibition) at 1uM” value is 11.7%. With `Cc1cc(C2C(C#N)=C(N)SC(N)=C2C#N)c(C)s1` the figure was 11.3%; with `S=c1nc(-c2ccccc2)oc2c1CCCC2`, 5.57%; with `Cl.O=C(CN1CCCCC1)Nc1cccc2c1OCO2`, 12.1%. The same measure for `CNCCOc1ccc(Cl)c(Cl)c1.O=C(O)C(=O)O`: 10.2%.

As for `S=C(c1ccc(-c2ccccc2Cl)o1)N1CCCCC1`, the “hERG current change (%, negative = inhibition) at 1uM” value is 4.52%. Regarding `CC(C)(C)N(Cc1ccccc1)C(=O)CSc1nc2ccccc2c(=O)[nH]1`, the “hERG current change (%, negative = inhibition) at 1uM” value stood at 4.8%. With `COc1ccc(C(C)=O)c(OC(=O)c2ccc(OC)c(OC)c2)c1` the figure was 12.3%; with `O=C(NCc1ccc2c(c1)OCO2)c1ccc(CSCc2ccccc2Cl)o1`, 5.57%; with `Cc1ccnc(NC(=O)c2cccc(S(=O)(=O)N3CCN(c4ccc(F)cc4)CC3)c2)c1`, -2.47%. The same measure for `CCC(C)N1C(=O)S/C(=C/c2ccc3c(c2)n(C)c(=O)n3C)C1=O` (centres unmarked): 12.4%; for `O=C(O)CC(SCC(=O)Nc1ccccc1)C(=O)O` (centres unmarked): 8.5%.

With `O=C(Nc1ccc(Cl)cc1)OC1CN2CCC1CC2` (centres unmarked), the “hERG current change (%, negative = inhibition) at 1uM” value came out at 10.1%.

With `Cc1cc(C)nc(Nc2ccc(C(=O)O)cc2)n1.Cl`, the “hERG current change (%, negative = inhibition) at 1uM” value was -1.74%.

Regarding `COc1ccc2ccccc2c1CNCCN1CCOCC1.Cl`, the “hERG current change (%, negative = inhibition) at 1uM” value is 17.8%. With `COCCn1cnc2c1c(=O)n(CC(=O)O)c(=O)n2Cc1ccccc1`, the “hERG current change (%, negative = inhibition) at 1uM” value worked out at 13.4%. With `CCCCNC(=O)C1C2C=CC(C2)C1C(=O)O` (centres unmarked) the figure was 11.5%; with `CC1=C(C(=O)Nc2ccccc2)C(c2ccco2)NC(=O)N1` (centres unmarked), 12%.

With `O=C1c2ccccc2S(=O)(=O)N1CCS(=O)(=O)c1ccc(F)cc1`, the “hERG current change (%, negative = inhibition) at 1uM” value was 3.72%. With `CCN1C=C(Cc2cccs2)C2=C(C1)C(c1cccs1)C(C#N)=C(N)O2` (centres unmarked) the figure was 3.03%; with `CCOc1ccc(S(=O)(=O)N/N=C(\C)Cc2ccc(OC)cc2)cc1`, 8.36%. With `CCc1noc(C)c1C(=O)N1CCN(S(=O)(=O)c2ccc(C)cc2)CC1` the figure was 7.83%; with `COC(=O)C1=C(c2cccc3c2S(=O)(=O)c2ccccc2-3)C[C@@H]2CC[C@H]1N2C(=O)N1CCOCC1`, 0.516%.

Take `Cc1ccc(C(c2nnnn2CS(=O)(=O)c2ccc(C)cc2)N2CCN(c3ncccn3)CC2)cc1` (centres unmarked): the “hERG current change (%, negative = inhibition) at 1uM” value turned out to be 11.7%. With `COC(=O)c1cccc(C23CC4(C2)[C@H](CN(CC2CCCCC2)[C@@H]4c2ccccc2)C3c2ccccc2)c1` (some centres unmarked) the figure was -1.4%; with `CC(NC(=O)[C@H](C)N1C(=O)N2CCc3c([nH]c4ccccc34)[C@@]2(C)C1=O)c1ccccc1` (some centres unmarked), -1.95%; with `Cc1ccc(NC(=O)Cc2ccc(Cl)cc2)nc1`, 14.1%. The same measure for `O=[N+]([O-])c1ccc(Oc2ccc(-c3cnc4ccccc4n3)cc2[N+](=O)[O-])cc1`: 12.7%; for `CCSc1cc(N2CCOCC2)nc(-c2ccc(Cl)cc2)n1`: 0.632%. For the compound `O=C(C1CCCN(c2ncnc3c2nc2n3CCCCC2)C1)N1CCCCC1` (centres unmarked), the “hERG current change (%, negative = inhibition) at 1uM” value came out at 2.43%.

For `CN1C(=O)CC(NNC(=O)c2ccc(Cl)cc2)C1=O` (centres unmarked), the “hERG current change (%, negative = inhibition) at 1uM” value was 1.38%. The same measure for `COc1ccc(C(=O)Nc2ccc(S(=O)(=O)N3CCc4ccccc43)cc2)cc1`: 12%; for `CC1=C(C#N)C(NC(=O)c2ccco2)(C(F)(F)F)C(=O)N1` (centres unmarked): 9.66%; for `COC(=O)C1=C(C)N(CC2CC2)C(=O)N[C@H]1c1ccc(Br)cc1`: 5.25%.

As for `Cc1cc(NC(=O)COc2ccccc2C)ccc1NC(=O)c1ccco1`, the “hERG current change (%, negative = inhibition) at 1uM” value is 9.4%. The same measure for `Cc1cc(NC(=O)Cn2nc(C(=O)O)c3ccccc3c2=O)ccc1Br`: 5.92%; for `COc1cc2c(cc1OC)C(C)N(C(=O)c1nccnc1C(=O)O)CC2` (centres unmarked): 11.7%.
